Structures are written as SMILES. Whole data set: some 110,000 compounds, median “z-score” near -0.1, cut for the highest 2% near 2. This is one part of the list. Active and inactive are the calls of the source.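 Rule for the calls: active = z-score in the third read window above 3 or below -3; inactive = the rest.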

For the experiment, the target named is Metabotropic glutamate receptor 8 (Rattus norvegicus) (UniProt P70579). Briefly: mGluR8 Gi/Go-coupled signaling modulation – cell-based, rat, thallium flux, HTS, primary screen (AID 488969). The note with it: HEK293 rat mGluR8, GIRK (G protein-gated inwardly rectifying potassium channel) thallium flux, FluoZin2; at 10 µM; stronger effect = higher value; submaximal glutamate (EC20) added with thallium.
UniProt P70579, sequence (P70579 whole entry, looked up): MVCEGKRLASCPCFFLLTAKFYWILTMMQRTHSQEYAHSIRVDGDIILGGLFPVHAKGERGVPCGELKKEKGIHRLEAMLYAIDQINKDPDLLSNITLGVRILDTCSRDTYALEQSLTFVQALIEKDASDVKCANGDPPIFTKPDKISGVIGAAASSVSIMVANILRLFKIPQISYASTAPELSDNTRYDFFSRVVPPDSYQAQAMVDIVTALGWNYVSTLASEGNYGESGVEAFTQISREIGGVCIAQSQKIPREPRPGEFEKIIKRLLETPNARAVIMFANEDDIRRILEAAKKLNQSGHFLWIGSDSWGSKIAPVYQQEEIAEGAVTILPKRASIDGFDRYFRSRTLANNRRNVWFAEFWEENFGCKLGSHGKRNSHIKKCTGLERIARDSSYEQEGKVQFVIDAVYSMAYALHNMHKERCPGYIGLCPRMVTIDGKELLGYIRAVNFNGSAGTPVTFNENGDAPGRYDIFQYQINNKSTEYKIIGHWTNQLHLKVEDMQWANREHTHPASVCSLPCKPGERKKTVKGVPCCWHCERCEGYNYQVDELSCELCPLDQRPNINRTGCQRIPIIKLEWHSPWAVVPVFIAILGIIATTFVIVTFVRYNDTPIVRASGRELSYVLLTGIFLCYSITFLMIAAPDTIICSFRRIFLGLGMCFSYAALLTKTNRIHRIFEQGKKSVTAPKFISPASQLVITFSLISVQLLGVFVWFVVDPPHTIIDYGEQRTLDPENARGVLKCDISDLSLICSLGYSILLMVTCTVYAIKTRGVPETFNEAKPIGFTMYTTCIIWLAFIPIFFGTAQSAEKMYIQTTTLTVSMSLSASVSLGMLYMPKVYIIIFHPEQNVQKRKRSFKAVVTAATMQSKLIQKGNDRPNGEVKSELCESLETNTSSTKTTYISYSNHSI
On to `NC(=O)C1CCN(C(=O)c2cc(S(=O)(=O)N3CCOCC3)c(Cl)cc2Cl)CC1`, for which the z-score was -0.0618.
Take `O=C(NC1CCSC1=O)c1ccc(Cl)cc1` (stereo not given): the z-score came out at 0.142.
On to `Cc1cc(C(=O)CN2C(=O)NC3(CCCC3)C2=O)c(C)n1-c1ccc2c(c1)OCO2`, for which the z-score is -0.531.
The figure for `CCN(CCNC(=O)c1ccc2nc(-c3ccccc3NC(C)=O)c(=O)[nH]c2c1)c1ccccc1` is -0.113.
The figure for `Cc1cc(C)nc(N(C#N)S(=O)(=O)c2ccccc2Cl)n1` is -0.133; for `CCN(CCNC(=O)CS(=O)(=O)Cc1nc(-c2cccc(OC)c2)oc1C)c1ccccc1` it is 0.638.
As to `COc1ccccc1-c1nc(C#N)c(N2CCC(Cc3ccccc3)CC2)o1`, the z-score is -1.19.
In the case of `O=c1[nH]c2ccccc2nc1/C=C(\O)C1CC1`, the z-score is -0.262.
The figure for `S=C(Nc1ccc(Cl)cc1Cl)N1CCCCC1` is 0.13; for `C/[N+]([O-])=C\c1coc2ccccc2c1=O` it is -0.173.
The figure for `CCCCNc1c([N+](=O)[O-])cc(C)cc1[N+](=O)[O-]` is 0.0329; for `Cc1ccc(C)c2[nH]c(=O)c(CCNC(=O)CC(C)(C)C)cc12` it is -0.129; for `O=[N+]([O-])c1cccc(N=NN(CCO)c2cccc([N+](=O)[O-])c2)c1` it is 0.184.
The figure for `CCC(=O)c1ccc(OCC(O)Cn2c(C)nc3ccccc32)cc1` (stereo not given) is -0.247; for `CCNS(=O)(=O)c1ccc(NC(=O)Nc2cccc(OC)c2)cc1` it is 0.0126.
Take `COc1ccc(/C=N/NC(=O)CCn2cnc(-c3ccccc3)c2-c2ccccc2)cc1OC`: the z-score was -0.718.
The figure for `Cc1ccc(NC(=O)CSc2nnc(-c3cnccn3)n2-c2ccccc2)cc1` is -0.0515; for `Brc1ccc(OCc2ccccc2)c(CNCc2ccncc2)c1` it is -0.155; for `CCOC(=O)c1c(OCC)[nH]c2ccc(O)cc12` it is 0.44.
Take `CC(=O)Oc1cc(OC(C)=O)c2c(C)cc(=O)oc2c1`: the z-score is 1.2.
The figure for `COc1nc2ccc(C)cc2cc1-c1noc(-c2cccnc2)n1` is -0.35.
The figure for `COc1ccc(-n2c(Cn3c(=O)sc4ccccc43)nnc2SCC(=O)N2CCCC2)cc1` is 0.171; for `CCN(CC)S(=O)(=O)c1ccc(N(C)Cc2ccc(C(F)(F)F)cc2)nc1` it is 0.0648.
`ON1C2CCCCC2N(O)C1c1c(F)c(F)c(F)c(F)c1F` (stereo not given) displayed a z-score of 0.131.
In the case of `COc1ccc(NC(=O)N(CCC(C)C)C(C)c2ccccn2)c(OC)c1` (stereo not given), the z-score is -0.384.
For the compound `O=C(NNC(=O)c1sc2ccccc2c1Cl)Nc1ccc(Cl)cc1`, the z-score is -0.0174.
`Cc1cc(C)nc(-n2nc(C)cc2NC(=O)c2cccc(S(=O)(=O)N3CCCCC3)c2)n1`: the z-score is -0.447.
For the compound `Cc1ccc(C(=O)CC(C(=O)O)c2cn(CCC#N)c3ccccc23)cc1` (stereo not given), the z-score is -0.137.
On to `Cc1csc(NC(=O)c2ccco2)n1`, for which the z-score is -0.675.
As for `O=C(Nc1cccc(Br)c1)c1ccccc1-c1ccccc1`, the z-score is -0.229.
As for `Cc1ccc(C)c(Nc2nc3c(S(=O)(=O)c4ccccc4)nnn3c3ccccc23)c1`, the z-score was -0.308.
Consider `Cc1nn(Cc2ccccc2)c(C)c1NC(=O)CSc1nc2c(c(C(F)(F)F)n1)CCc1ccccc1-2`, for which the z-score is -0.213.
As for `O=C(NC(=O)N1CCN(c2cccc(Cl)c2)CC1)c1ccccc1`, the z-score turned out to be 0.282.
Compound `Oc1ccc(C=Nc2cccc3ncccc23)c(O)c1` returned a z-score of 0.192.
The figure for `COc1ccccc1C/C(N)=N/O` is -0.139.
For `COc1ccc(CCNC(=O)CN(c2ccccc2)S(C)(=O)=O)cc1OC`, the z-score stood at 0.0553.
Take `O=C(NCCc1ccncc1)Nc1ccccc1`: the z-score amounted to 0.141.
Turning to `CCNc1nc(NC(C)C)nc(Oc2ccc(/C=N/O)cc2)n1`, the z-score came out at 0.00305.
With `Cc1ccc(NC(=O)CC2SC3=NCCN3C2=O)cc1` (stereo not given), the z-score worked out at 0.0627.
Turning to `Cc1ccc(C2(C(F)(F)F)NC(=O)N3C(=C2C#N)Nc2ccccc23)cc1` (stereo not given), the z-score was found to be 0.32.
On to `O=C(CN(c1ccc(F)cc1)S(=O)(=O)c1ccc2c(c1)OCCO2)NCC1CCCO1` (stereo not given), for which the z-score was -0.0335.
The figure for `COc1ccc2c(c1)c1nc(SCC(C)C)n(CCO)c(=O)c1n2C` is -0.0735; for `O=C1C=C(NCc2ccco2)C2(CCCCC2)O1` it is -0.278.
On to `Cc1nn(C)c(C(=O)N2CCc3ccccc32)c1Cl`, for which the z-score came out at 0.211.
On to `COc1cc(NC(=O)Cc2nn(C)c(=O)c3ccccc23)cc(OC)c1OC`, for which the z-score is -0.201.
The figure for `COc1ccc(C(=O)NCC2OCCc3ccccc32)cc1` (stereo not given) is 0.422.
With `Cc1ccc(C(=O)CCC(=O)CCC(=O)O)cc1`, the z-score was -0.0319.
Consider `Cc1cc(C(=O)CSc2n[nH]c(N)n2)c(C)n1-c1cc(F)ccc1F`, for which the z-score was active: 6.6.
The figure for `O=C(NCc1n[nH]c(=S)n1-c1cccc(Cl)c1)c1ccc(S(=O)(=O)N2CCCC2)cc1` is -0.0232; for `O=S(=O)(NCCc1ccccc1)c1ccc(Cl)nc1` it is -0.176.
On to `COc1ccc(/C=N/NC(=O)c2sccc2OCc2ccc(F)cc2)cc1OC`, for which the z-score is -0.163.
Take `CCOC(=O)C1=C(c2ccccc2)OC(N)=C(C#N)C1c1ccc(Br)s1` (stereo not given): the z-score was -0.219.
The figure for `Cc1ccc(Nc2ccc([N+](=O)[O-])nc2[N+](=O)[O-])cc1` is -0.0765.
For the compound `Cc1nc(N2CCN(Cc3ccc4c(c3)OCO4)CC2)nc2c1C(=O)CC(c1ccco1)C2` (stereo not given), the z-score was -0.971.
As for `COc1cc(C(=O)NCCC(C)C)c([N+](=O)[O-])cc1OC`, the z-score was -0.0655.
The compound `CCOC(=O)C1=C2SCC(=O)N2C(N)=C(C#N)C1` displayed a z-score of 0.0493.
The figure for `O=C(Nc1cc(C(=O)N2CCCC2)ccc1N1CCCC1)c1ccccc1F` is -2.72; for `COc1ccccc1CNC(=O)c1ccccc1OCc1ccc(F)cc1` it is -1.16.
The figure for `CCCS(=O)(=O)n1nc(-c2ccc(OC)cc2)cc1N` is -0.128.
For `CC(=O)c1c(C)[nH]c(C(=O)NCCCN2CCCC2)c1C`, the z-score was 0.103.
As to `CC(=O)Nc1cc2c(cc1NC(=O)Cn1nc(-c3ccccc3F)ccc1=O)OCCO2`, the z-score was -0.0689.
In turn, `CCc1cc(C(=O)NNC(=S)Nc2ccccc2C)cs1` displayed a z-score of 1.47.
On to `COc1ccccc1OCC(=O)Nc1ccc(S(=O)(=O)NC(C)=O)cc1`, for which the z-score was -0.535.
On to `Cc1c(-c2ccccc2)oc2c(C(=O)OCC(=O)Nc3cccc(F)c3)cccc2c1=O`, for which the z-score was -0.491.
The figure for `Cc1cc(C)c(S(=O)(=O)N2CCCCC2)c(C)c1N(C)S(=O)(=O)c1ccc(Cl)cc1` is 0.175; for `O=C(Nc1ccccn1)C1CCN(S(=O)(=O)c2cccc3nonc23)CC1` it is 0.0263.
`CCOC(=O)CN(C(=O)CSc1nnc(-c2ccncc2)n1CCCN(C)C)c1ccccc1` had a z-score of 0.586.
For the compound `CCN(CC)c1ccc(N2C(=O)/C(=C\c3cccs3)SC2=S)cc1`, the z-score is -0.251.
`Cc1ccc(S(=O)(=O)N(C)CC(=O)NC2CCCC2)cc1`: the z-score was -0.315.
For `C=CCn1c(SCC(=O)NCc2ccc3c(c2)OCO3)nc2scc(-c3ccccc3)c2c1=O`, the z-score is -0.416.
In turn, `Cc1ccc(S(=O)(=O)N2CCC(C(=O)N3CCC(C(=O)NCc4cccnc4)CC3)CC2)cc1` yielded a z-score of 0.149.
With `CC(=O)N1c2c(cc(Br)cc2S(=O)(=O)N2CCN(C(=O)c3ccco3)CC2)CC1C` (stereo not given), the z-score was -0.144.
For the compound `COc1ccc(C(=O)CSc2nc3ccc([N+](=O)[O-])cc3[nH]2)cc1`, the z-score is -0.643.
The figure for `CCC(CC)NC(=O)COC(=O)c1cc(Br)ccc1Cl` is 0.144; for `Cc1ccc(NC(=O)Nc2ccccc2)c(Br)c1` it is 0.0969; for `CCN(CC)c1ccc(NC(=O)/C=C/c2cc(Br)ccc2OC)cc1` it is -0.228.
The figure for `CCN(CC)C(=O)c1sc2[nH]c(=S)n(-c3ccccc3)c(=O)c2c1C` is -0.496.
The figure for `COC(=O)C1CCN(C(=O)CCCOc2ccccc2)CC1` is -0.678; for `CCNC(=S)N1CCN(CC(=O)Nc2ccc(Br)cc2)CC1` it is -0.0221; for `O=c1[nH]cnc2c1C(c1ccccc1[N+](=O)[O-])c1c(nc[nH]c1=O)O2` it is -0.0633.
Turning to `O=C(N/N=C/c1cc2ccccc2nc1Cl)/C(=C/c1cccs1)NC(=O)c1ccccc1`, the z-score is -0.489.
As to `CC(C)c1cc(C(=O)O)on1`, the z-score is -0.474.
`C=C(C)COc1ccc(-c2[nH]ncc2-c2ccccc2OC)c(O)c1` registered a z-score of 0.603.
For the compound `CCN(CC)S(=O)(=O)c1ccc(C(=O)OCC(=O)Nc2ccc(-c3nc4ccc(C)cc4s3)cc2)cc1`, the z-score is -0.0222.
In the case of `COc1ccc(-c2nnc(SCC(=O)N3CCCC3)o2)cc1OC`, the z-score turned out to be 0.322.
In turn, `Cn1c(=N)n(CC(O)c2ccccc2)c2ccccc21` (stereo not given) had a z-score of 1.57.
Compound `Clc1ccc(OCCOCCN2CCc3ccccc3C2)c(Cl)c1` gave a z-score of 0.0893.
The figure for `CS(=O)(=O)N(CC(=O)Nc1ccc(Cl)c(Cl)c1)C1CCCCC1` is 0.0485; for `Cc1ccc(Nc2ncnc3c2oc2ccccc23)cc1` it is -0.215.
Consider `CC(C)(C)NC(=O)C1CCCN(S(=O)(=O)c2cccc3cccnc23)C1` (stereo not given), for which the z-score was -0.133.
Take `C=CCNC(=S)NNC(=O)C(CCC(C)C)CC(C)O` (stereo not given): the z-score is -0.319.
For `COc1cc(NC(=O)C2COc3ccccc3O2)c(OC)cc1Cl` (stereo not given), the z-score is -1.21.
As for `CO/N=C/C(=N\Nc1ccc(OC)cc1)C(=O)c1ccc(OC)cc1`, the z-score came out at 0.105.
The figure for `CCn1c(-c2csc(-c3ccccc3)n2)n[nH]c1=S` is 0.398; for `O=C(O)C1CC=CCC1C(=O)NCc1ccccc1` (stereo not given) it is -0.00232; for `COc1cc([N+](=O)[O-])cc(/C=N/NC(=O)c2ccc(C)nc2)c1O` it is -0.205.
`COc1ccc(-c2nnc(SC(C)C(=O)Nc3cccc(Cl)c3)o2)cc1` (stereo not given): the z-score is -0.517.
On to `COc1ccc(C2C3=C(CC(C)(C)CC3=O)Nc3c2c(=O)[nH]c(=O)n3Cc2ccccc2)cc1OC` (stereo not given), for which the z-score is -0.0796.
On to `Cc1cc(=O)oc2cc(OCC(=O)NCc3ccccn3)ccc12`, for which the z-score is -0.044.
As to `COc1ccc(N2CCN(C(CNC(=O)C(=O)NCCC3=CCCCC3)c3ccco3)CC2)cc1` (stereo not given), the z-score is -0.193.
For `O=C(CSc1nc2ccccc2o1)Nc1nc2ccc(Br)cc2s1`, the z-score is 0.176.
The figure for `CCOc1cccc(=O)c2c(C)n(C)c(C)c12` is -0.449; for `O=C(O)C1CC(O)CN1S(=O)(=O)c1cccs1` (stereo not given) it is 0.808.
Turning to `O=C1/C(=C/c2ccccc2)Nc2ccccc21`, the z-score is -0.773.
In turn, `O=C(NNC(=S)Nc1cccc(C(F)(F)F)c1)c1ccccc1Cl` registered a z-score of 0.86.
Take `CCOC(=O)CCc1c(C)c(C#N)c2nc3ccccc3n2c1-n1cnc2ccccc21`: the z-score was -0.146.
`CCc1c(C)sc(NC(=O)c2cccs2)c1C#N`: the z-score was -0.577.
Regarding `Cc1nn(CC(=O)N2CCOCC2)c(=O)c2ccccc12`, the z-score amounted to 0.0183.
On to `CC1Cc2ccccc2N1C(=O)C1CCCN(S(=O)(=O)c2cccc3cccnc23)C1` (stereo not given), for which the z-score was -0.322.
In turn, `Brc1ccc2cccnc2c1` had a z-score of 0.127.

Values taken from PubChem BioAssay AID488969 (Vanderbilt High Throughput Screening Facility, 2010).
